From the RNAGym collection of RNA variant scans (doi:10.1093/nar/gkz1192) come the findings set out here.

The source gives no read counts; variants with many changes may rest on few reads.

B1: CPEB3 Ribozyme (parent)
chain: UAACAGGGGGCCACAGCAGAAGCGUUCACGUCGCAGCCCCUGUCAGAUUCUGGUGAAUCUGCGAAUUCUGCUGUAUAUCUC

Variants of B1 are the subject of the series. As to the kind of experiment: self-cleavage, relative activity (ratio to wild type); higher = more cleavage; in vitro, sequencing. The procedure, abridged:
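For each CPEB3 ribozyme variant, relative activity is its cleaved/total read fraction divided by the unmutated ribozyme's. Barcoded error-prone PCR libraries were transcribed by T7 RNA polymerase (5 hours, 37°C) and held in DNase I for 15 min before an EDTA stop, with cleavage occurring throughout. Template-switching reverse transcription and Illumina sequencing were used to read the RNAs. A 5-read minimum applied, and results are the mean of three batches.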
Turning to G7A A28G A35G, the self-cleavage is 0.14.
Turning to G7A U41A A57G A64G U66C, the self-cleavage was 0.15.
The value for G6U C11A A18U U25G was 0.05; that for G6U G24U A28G was 0.24.
The value for G7A A28U U41C U49C A56G was 0.06.
Next, G6U G16A A65G: 0.25; G6U A20C C23A A64U U80C: 0.06.
As for G7A U25C A57G, the self-cleavage was found to be 0.16.
Take G7C A18G U41C A56G: the self-cleavage was found to be 0.34.
In the case of G6C A20G U25C C29U U60C, the self-cleavage is 0.05.
Next, G6C A13U U72C: 0.53; G7A U31C A35U U41A: 0.14; G6U C23U A64G: 0.22.
On to G7A A18G G33U C40U U54C, for which the self-cleavage turned out to be 0.24.
Next, G6U G19A U31A A45G U69C: 0.05; G6A U69A U80C: 0.08; G6C A45G U60A A64U: 0.11.
Next, G7A A21G U43C U80C: 0.18; G6U U31C U43C U60C C62U: 0.05; G6C U25C U60C: 0.35.
For the variant G7A G24A U26C A35G A45G U49C U72C, the self-cleavage came out at 0.15.
As for G6U U51A U66C, the self-cleavage was 0.08.
Next, G7A C34U G70A: 0.06.
The value for G7A A75U U78A was 0.08; that for G6U A15U G24A U80C was 0.39.
The value for G7A A45U A56G was 0.01; that for G6C G53C U60C was 0.07; that for G6U A35G A57G was 0.3.
Turning to G7A U25C U43G U80A, the self-cleavage stood at 0.06.
The value for G7C A20G A21G U43G was 0.41; that for G7A U48G U60C U69C was 0.13.
For G7A A35G U41A U54A U76C A77G, the self-cleavage stood at 0.12.
The value for G6A U74C U76A was 0.66; that for G7A C32U A35G A45G U72A was 0.09.
For G7A C12U U25A U54C, the self-cleavage came to 0.05.
Next, G6U A15G C17G C29U U69C: 0.05.
On to G7A U66C U74C, for which the self-cleavage is 0.22.
The value for G6U A28G C79A was 0.09; that for G7A C29U G53U U58A U72C U78C C81A was 0.05; that for G7C A28G C32U G53C A77G U78C was 0.13.
Next, G6U A13U A18G A20G U25C U43C: 0.05.
The value for G6U U51C U60C A64G U66C was 0.05; that for G7A A15C A35G A64G U67C U80C was 0.04; that for G7A A15G A20G U26A A35U was 0.04.
G7A U26C C38U U48C C59G U76A: the self-cleavage worked out at 0.03.
With G7A A56U U74C, the self-cleavage came out at 0.35.
Next, G6U A13G U60A: 0.38; G7A C34U G53U U54C U72A: 0.05; G7A A35U U78C U80C: 0.05.
Take G7A C11G A18G U31A: the self-cleavage amounted to 0.05.
Next, G6U A35U A64G: 0.16; G6U C17G A28G U72C A77G: 0.06; G6C G30A U67C U74A: 0.15.
Next, G6U G16A U25C A28U A47U A57G A64G: 0.04; G6C C12U U43C A75U: 0.25; G6A U69C A77G: 0.19.
Consider G6U A13G A20G U31A U51A U72A, for which the self-cleavage was found to be 0.04.
Turning to G6U A28U G30U A35G U41C G70C U74A, the self-cleavage was determined as 0.04.
The value for G7C A18G C38A was 0.21; that for G7A A15G A21G U26C U72A was 0.06.
Next, G6U U60C U74C: 0.22.
The value for G7A A20G U25C C32G A45G A64C U78C was 0.05.
Take G7A U26C A57G U69C U80C: the self-cleavage is 0.05.
As for G7A U43C U74G U80A, the self-cleavage was found to be 0.21.
Turning to G7A G10A A20U U66A, the self-cleavage came to 0.15.
Next, G6U A20G U58C: 0.32.
The value for G7A A13U A18U U25C U26C U41C U80C was 0.17.
Consider G6U C29U A35U, for which the self-cleavage was determined as 0.11.
The value for G6C G30A A45U U66C C79A was 0.21; that for G7A G8U A47G A57G was 0.09; that for G7A U49C U72A was 0.06.
Next, G6U A28G U31A A45G A56C U69C G73A: 0.04; G6U G7A U41A A56G A57G A64G U78C: 0.06.
The value for G7A A20G U31A A45G U54C U66C was 0.07; that for G6A U54G G63C was 0.3; that for G7A A13G A47G U66C U80A was 0.2.
For the variant G6C C23U U67C, the self-cleavage worked out at 0.12.
Turning to G6C G9C G36U C40U U66C, the self-cleavage turned out to be 0.12.
The value for G7A C12A A15U U51G was 0.08; that for G6U C11A A28C C32A A47U U69G was 0.06; that for G6U U25C U54A U67C was 0.12.
The value for G7A U48C U58C U60A A64G G73U was 0.05; that for G7A C23U U26A C34U U41A U49A was 0.04.
With G6C U26C A57U, the self-cleavage turned out to be 0.33.
Next, G7A A15G U25C U43C A57G U78C: 0.04; G6A U54C U58C: 0.05; G6C A35U U43C U58C U60A: 0.05.
Next, G6C A18G U31C U41C A65G U72A U80A: 0.04; G6U C11G C40U U43C U49G A64G: 0.28; G6C A15G U51C U72C: 0.13.
As to G7A A21G U43C U60A, the self-cleavage amounted to 0.18.
Next, G7A A20G A35G A77G: 0.15; G6U A13G A47G U51C: 0.06.
Next, G6U A21G C23U U26C: 0.07.
The value for G6U G9A A64U U69A U74C U78A was 0.05.
For the variant G7A C34A U74C, the self-cleavage was 0.18.
Turning to G6U A28C U51C A56G U78C, the self-cleavage was determined as 0.07.
Turning to G7A A13U U26A U49C G53A C62U G70A, the self-cleavage was 0.03.
With G6U C12A U43C A56G A65G, the self-cleavage worked out at 0.21.
The value for G7A U43C U60A A77G was 0.05.
The value for G6U A64U U78A U80A was 0.09; that for G6U A15U C29U A45G U58A A75G was 0.04; that for G6C A13G U31C C38A U48C was 0.45.
The value for G7A C23G U60C A65G U74A was 0.04; that for G7C A18G A20U C38U A45G U67A U78C was 0.03; that for G6A U60A U69C was 0.08.
Consider G7A A15U C23A U26A U54C U78C, for which the self-cleavage was 0.03.
Next, G7A C11G G61A U67C U72A: 0.05.
As for G6U C27U A35G U43C A77U, the self-cleavage is 0.08.
The value for G6U A47G U49C A64U was 0.12; that for G6A U58A U72A was 0.13.
As to G7A A18U C38A A56G, the self-cleavage was found to be 0.04.
Next, G6U A18U U54C U60A: 0.2; G7A A13G A35G U67C: 0.31; G7A G24A C40U C62U: 0.06.
The value for G7A A35G U49C U54G was 0.1; that for G7A G46C U49C U58C U80C was 0.05; that for G6C U25C U69C U80C was 0.09.
For G6U A20U A28G U54C, the self-cleavage is 0.29.
Next, G7A A64G A77G: 0.08; G6U A35G U80C: 0.53.
For the variant G6C U49C U51C U60C U72C, the self-cleavage is 0.08.
The value for G7A U43A A65C U80C was 0.23; that for G6C A15C C40U U54C was 0.07; that for G6U A18U A35C U54C U58C was 0.08.
With G7A U69C A77U, the self-cleavage is 0.13.
G7A C14A U31G U43C A64G U78C: the self-cleavage stood at 0.06.
Next, G7A U25C A56U G70C: 0.17; G7A A35U U60C: 0.05; G6C G10U U25C A35U U49A: 0.05.
The value for G7A A15G U69C was 0.22; that for G7A C11U U54G U72C was 0.07; that for G6U A28G G36C U67C U78C was 0.04.
The value for G7A A47G A64G was 0.06; that for G7A U43A U54A was 0.1; that for G7A A45U A57U was 0.19.
For the variant G7C A13G U72G, the self-cleavage amounted to 0.17.
Next, G7A U43A A65G U69C: 0.2; G7A U41A U74C U78C: 0.06.
Next, G7C A21G U78C: 0.29.
For the variant G7A A15G A65G, the self-cleavage came to 0.24.
Next, G6A U66C U67A: 0.2; G6C A28G U41C U58C U67C: 0.07; G6U A13G C32U U49C G63A U67C U72A: 0.05.
Next, G7A A13G G42C U67C: 0.06; G7A C37A U60G: 0.22.
The value for G6U A15G A18G U72C was 0.12; that for G7A A28G U41C A56G A65G U69C was 0.03.
On to G6C U51C U69G, for which the self-cleavage was determined as 0.1.
Next, G7A A47G G53U: 0.08; G6U A15C A21G C27A G33U: 0.12.
The value for G7A C23G U74A was 0.34.
The value for G7A A21G C39A was 0.38; that for G6C A20U A21G U41A U43C A47G A57G was 0.03.
G7A C27U U49C U66C: the self-cleavage came to 0.14.
The value for G7A A20U U31C U41A U69C U72C was 0.04; that for G6U U54C U78A was 0.42; that for G6U C11U A21G C27A G30C U74C was 0.04.
With G7A G9U C40U A45G C50U, the self-cleavage came to 0.05.
The value for G6U A21G U25C C32G U41C U54C U76C was 0.22.
Next, G6U A21U A47U U48C U76A A77G: 0.23; G6C A28G A56U A57G U72C: 0.13.
Next, G7A G9A U26C U60C A64G: 0.11; G7A G22U U51C U67C: 0.09.
As to G7A G52A A65G U80C, the self-cleavage is 0.06.
The value for G6U U51A A65G was 0.15; that for G7A U26C A35U A45G U78C was 0.04.
